# Source: ChEMBL document CHEMBL4888484, “Replenishing the malaria drug discovery pipeline: Screening and hit evaluation of the MMV Hit Generation Library 1 (HGL1) against asexual blood stage Plasmodium falciparum ,using a nano luciferase reporter read-out” (2022)
# In all, about 150,000 compounds went through this assay and about 540 (0.36%) showed an effect of 50% or more. The list shows a part of the results.
# Tested on: Plasmodium falciparum
# Assay: Primary screen in NF54 nanoGlo assay, in single point, at 2uM, 72h; a lower Z score goes with more inhibition
# Type: functional, Erythrocyte
# Details: timepoint 72 hour
SMILES,% Inhibition [%],Z score
CC(C)c1cnc(NCc2cscn2)s1,-8,1.15
N#Cc1c2c(c[nH]c1=O)CC1(CC2)OCCCCO1,-10,1.89
Cc1nccn1CCC1CCN(C(=O)c2cnn(C(C)C)c2)CC1,-11,1.44
CC(C)(C)c1nnc(N2CC3CN4CCCCC4C3C2)s1 (stereo unspecified),-4,0.45
O=C(c1ccc(OC(F)F)cc1)N1CCN(c2nc[nH]n2)CC1,-13,1.35
CCCCNC(=O)CN1CCn2nc(-c3ccc(Cl)cc3)cc2C1=O,-14,1.86
Cc1cccc(C(=O)Nc2ccc3c(c2)OC2(CCCCC2)O3)n1,3,-0.36
O=C(Nc1nc2c(s1)CCCC2)c1ccsc1,-6,0.8
CC(C)n1nccc1NC(=O)c1ccnc(C2CC2)c1,-5,0.65
CS(=O)(=O)[C@H]1CCCN(c2cccnc2C#N)C1,-13,1.65
N#CC1(NC(=O)[C@@H]2CC(c3ccccc3)=NO2)CCCC1,1,-0.13
CC1CN(C[C@@H](O)c2ccccc2)CC(CO)O1 (stereo partly specified),-12,2
Cc1ccc(CNS(=O)(=O)c2cc(-c3nc(C)c(C(=O)N4CCCC4)s3)n(C)c2)o1,6,-0.68
CC(C)N(C)c1ccc(NC(=O)N2CCOCC3(CCOCC3)C2)cc1F,-8,1.17
CN(C)[C@H]1CCN(CC(=O)NC2(c3cc(F)ccc3F)CC2)C1,8,-1.27
Fc1cccc(F)c1-n1c(CN2CCCCC2)csc1=S,38,-4.91
CN(Cc1cnn(C)c1)Cc1cc(Br)cc2c1OCC2,-3,0.29
CCN(CCC1CCN(C(=O)Nc2ccc(OC3CCOCC3)c(C)c2)CC1)CC(C)C,37,-5.74
CC(C)CCN(Cc1c(-c2ccccc2)noc1N1CCN(C)CC1)C(=O)c1ccc(Cl)cc1,-1,0.14
CC(C)c1cc(CN(C)C(=O)c2ccc3nnnn3c2)on1,-15,1.88
COc1ccc2[nH]cc([C@@H](CCc3ccccc3)CC(=O)Nc3ccccc3)c2c1,-5,0.68

SMILES,% Inhibition [%],Z score
CCN(CC)CCN(CC(C)C)c1ccc2nnc(C(F)(F)F)n2n1,0,-0.02
CN1CCN(C(=O)c2cn(CCN(C)S(=O)(=O)c3cccc(C(F)(F)F)c3)nn2)CC1,-12,1.64
COc1cccc(-c2ccnc3c(C(=O)NCc4ccc(F)cc4)cnn23)c1,-13,2.35
CCC[N+]1(CC#C[C@@](O)(c2ccccc2)C2(C)CCCC2)CCCCC1,51,-4.55
CCC(C)[C@H](NC(=O)C1CCCN(S(=O)(=O)c2ccc(OC)cc2)C1)C(=O)NCc1ccco1 (stereo partly specified),2,-0.43
CCOC(=O)c1ncn([C@@H]2O[C@H](CO)[C@H]3OC(C)(C)O[C@H]32)c1N,-9,1.15
Cc1nc(N2C[C@@H](CN(C)C)[C@@H](CO)C2)nc2c1CCCC2,2,-0.42
Cc1nn(CCNS(C)(=O)=O)c(C)c1-c1ccco1,22,-2.83
Cc1noc(C)c1S(=O)(=O)N1CC=C(c2c(C)[nH]c3ccccc23)CC1,4,-0.51
Cc1cc(C(=O)N2CC[C@](O)(c3ccccc3)[C@H](N(C)C)C2)[nH]n1,4,-0.54
CC(C)c1ccc(Oc2cnn(-c3cccc(Cl)c3)c(=O)c2Nc2cccc(C(=O)NC3CC3)c2)cc1,26,-7.11
C(#Cc1ccccn1)CN1CCCCC1,-7,1.18
CS(=O)(=O)N1CCC[C@H]1C1CCC1,-6,0.59
CCOC(=O)[C@@H](NC(=O)c1cnnn1CC)C1CCCCCC1,-4,0.79
COC[C@@H]1CN(Cc2ccc(Cl)cc2F)C[C@H]1C(=O)NC1CC1,1,-0.12
O=C1CN(C(=O)Nc2ccncc2)C2(CCCCC2)C(=O)N1,-6,1.05
CC(C)(C)[C@H](Cn1ccnc1)n1cnc2ncccc2c1=O,-11,2.12
N#Cc1ccccc1C(=O)NCc1cc2n(n1)CCCN(C1CCCCC1)C2,-12,1.21
O=C(c1cccc2[nH]ncc12)N1CCCC1,1,-0.17
C[C@@H](c1nccs1)N(C)c1nc2nonc2nc1NC1CC1,-15,2.31
Cc1nc(C)c(C)c(N2CCC[C@]3(CCC(=O)N(C4CCCC4)C3)C2)n1,-11,1.34

SMILES,% Inhibition [%],Z score
Cc1csc(N(C(=O)c2[nH]nc3c2CCCC3)C2CC2)n1,6,-0.72
Cc1ccc2c(c1)[C@]1(C(=O)N2)[C@@H]2C(=O)N(c3ccc4ccccc4c3)C(=O)[C@@H]2[C@@H]2CCCN21,-13,1.71
COCC(=O)N1CCc2cc(NC(=O)c3n[nH]c4ccccc34)ccc21,-1,0.18
Cc1noc(C)c1C(=O)N1CCCCC[C@H]1c1nn(C)cc1Cl,-10,0.91
CCN(CCO)C(=O)c1cc(Cl)c(OCCC(C)C)c(OC)c1,7,-0.94
O=C(NCCN1CCC(CO)CC1)N1CC(Oc2ccccc2F)C1,-17,1.55
C#CCNC(=O)c1ccc(N[C@@H](C)COC)nc1,-9,1.46
O=C(NCC1CCCCC1)Nc1ccccc1N1CCCC1=O,0,0.02
O=C(Oc1ccc(N2CCCC2=O)cc1)c1ccc(F)c(F)c1,-3,0.5
CCOc1ccc(S(=O)(=O)N2CCC(n3cnc4cccnc43)CC2)cc1,2,-0.31
COCCN(Cc1c(-c2ccccc2)noc1N(C)C1CCCCC1)C(=O)CC(C)C,-6,0.81
O=C(Nc1ncccn1)C1CCN(Cc2nnsc2Cl)CC1,-10,1.26
CN(CC1CCOCC1)S(=O)(=O)Cc1ccccc1,-8,1.2
CN(C(=O)CS(=O)(=O)Cc1ccn(C)c(=O)c1)C1CCCCC1,2,-0.49
O=C(C[C@H]1COc2ccccc2O1)N1CCC(COc2cc3c(nn2)CCCC3)CC1,-15,1.71
COCCc1nc(-c2cnc(C3CC3)nc2)n(CCO)n1,-7,1.33
CN(CC(=O)Nc1cc(S(C)(=O)=O)ccc1Cl)Cc1ccco1,2,-0.3
Cc1nc(C)c(Cc2cccc(F)c2)c(N2CCCN(C(=O)c3cc(C(F)(F)F)cc(C(F)(F)F)c3)CC2)n1,-5,0.59
C[C@@H](CCc1ccccc1)NC(=O)c1ccc(-n2nc(OCc3ccc(Cl)cc3)ccc2=O)cc1,-6,1.02
CCN(CC(=O)Nc1ccc(OC)cc1)C(=O)Cc1ccc(OC)c(S(=O)(=O)N2CCOCC2)c1,-2,0.47
Brc1cc2c(cc1CN1CCOC3CCCCC31)OCCCO2 (stereo unspecified),-11,1.65

SMILES,% Inhibition [%],Z score
COc1ccc(NC(=O)c2ccc(S(=O)(=O)N3CCc4ccccc43)cc2)c2ccccc12,-7,1.16
COc1cnc(NC(=O)N2CC=C(c3cc(C)cc(C)c3)CC2)s1,-1,0.15
Cc1cc2nnn([C@@H](C)CO)c2cc1C,-1,0.09
COC(=O)c1ccc(-c2nc(CN(CC3CC3)C[C@H]3CCCO3)c(C)o2)cc1,-10,1.24
O=C(N[C@@H]1COCC[C@@H]1OCc1cscn1)c1ccc2scnc2c1,-7,1.17
CC(C)c1nccn1C[C@H]1CCc2ccccc2O1,-4,0.74
N#CCCN(CCO)Cc1ccccn1,6,-0.59
O=C(NCc1ccccc1CN1CCCC1CO)C1CC1c1ccc(Cl)cc1Cl (stereo unspecified),-2,0.24
CC(C)CS(=O)(=O)C1CN(C(=O)CCc2ccc(F)c(Cl)c2)C1,-12,1.58
CCCc1nnsc1C(=O)NCCc1nc2c(c(C(F)(F)F)n1)CCCC2,-9,0.98
CCOC(=O)NCCC(=O)NC(C)C1CCCO1 (stereo unspecified),0,0.05
Cc1cccc(Nc2ncncc2-c2nc(-c3ccccc3)no2)c1C,-5,0.73
CC(=O)N(CCCN1CCOCC1)[C@H]1CCCN(C(=O)c2cc(C)n(C)n2)C1,5,-0.62
Cc1ccc(-c2nn(C)cc2C(=O)N2C[C@H]3CN(C)C[C@@]3(C)C2)o1,-6,0.82
Cc1cc(-c2cc(S(=O)(=O)Nc3cccc(Cl)c3)c(C)s2)on1,2,-0.18
c1ccc(-n2nnnc2N2CCC[C@H](c3nccn3CC3CC3)C2)cc1,5,-0.59
CCn1cc(S(=O)(=O)NC(=O)[C@@H](C)Cc2ccc(C)cc2)cn1,-10,1.94
Cc1ccc(C)c(-n2nc(C)nc2C2CCNCC2)c1,-4,0.64
O=C(c1n[nH]c2c1CCCC2)N1C[C@H]2CC[C@@H](C1)N(Cc1ccccn1)C2=O,-12,1.84
COc1cc(-c2nc3ccccc3c(=O)[nH]2)ccc1OCc1ccc(Br)cc1,-40,4.75
